The campaign covered roughly 310,000 compounds. About 2,200 (0.71%) showed an effect of 50% or more. Effects have a minus sign here. The list shows a part of the results.
The compounds below were run against human ether-à-go-go-related gene (hERG) potassium channel (human, UniProt Q12809) (assay: primary screen, population patch clamp on CHO cells stably expressing hERG).
Sequence of human ether-à-go-go-related gene (hERG) potassium channel (Q12809 whole entry, looked up): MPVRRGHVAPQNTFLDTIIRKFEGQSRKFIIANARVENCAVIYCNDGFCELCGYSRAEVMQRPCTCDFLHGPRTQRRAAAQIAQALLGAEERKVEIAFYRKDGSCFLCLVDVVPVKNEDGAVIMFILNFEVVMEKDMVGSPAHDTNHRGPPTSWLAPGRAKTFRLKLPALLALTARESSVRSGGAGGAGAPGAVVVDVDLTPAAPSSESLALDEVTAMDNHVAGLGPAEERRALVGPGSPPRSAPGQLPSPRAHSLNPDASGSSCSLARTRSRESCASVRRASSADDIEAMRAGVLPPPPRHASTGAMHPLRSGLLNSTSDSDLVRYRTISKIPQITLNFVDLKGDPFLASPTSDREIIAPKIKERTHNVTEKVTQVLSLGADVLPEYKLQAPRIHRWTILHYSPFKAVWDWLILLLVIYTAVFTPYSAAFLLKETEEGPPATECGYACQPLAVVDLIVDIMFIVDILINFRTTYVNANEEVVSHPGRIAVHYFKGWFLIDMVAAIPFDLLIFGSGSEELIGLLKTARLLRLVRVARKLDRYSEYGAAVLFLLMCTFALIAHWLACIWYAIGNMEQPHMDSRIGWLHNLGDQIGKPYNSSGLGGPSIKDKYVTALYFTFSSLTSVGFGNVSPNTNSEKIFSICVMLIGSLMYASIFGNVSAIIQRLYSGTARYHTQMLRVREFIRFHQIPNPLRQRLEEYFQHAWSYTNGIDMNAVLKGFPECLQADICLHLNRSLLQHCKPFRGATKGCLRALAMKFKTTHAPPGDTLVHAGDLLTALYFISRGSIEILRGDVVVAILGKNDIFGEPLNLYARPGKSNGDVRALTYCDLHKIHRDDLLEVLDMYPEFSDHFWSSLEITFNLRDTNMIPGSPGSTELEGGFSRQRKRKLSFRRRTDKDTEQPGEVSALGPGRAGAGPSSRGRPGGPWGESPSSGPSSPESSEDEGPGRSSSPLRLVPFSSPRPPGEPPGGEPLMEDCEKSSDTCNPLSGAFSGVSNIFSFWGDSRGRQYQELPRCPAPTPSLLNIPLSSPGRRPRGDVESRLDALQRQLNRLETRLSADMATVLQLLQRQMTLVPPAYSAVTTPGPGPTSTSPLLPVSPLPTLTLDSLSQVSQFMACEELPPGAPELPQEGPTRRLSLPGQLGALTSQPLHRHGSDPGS

SMILES | hERG current change (%, negative = inhibition) at 1uM [%]
O=[N+]([O-])c1ccc(Cl)c(NC(=S)N2CCCC2)c1 | 14.3
CCOC(=O)C1CCCN(S(=O)(=O)c2c(C)[nH]c(C)c2C(=O)N2CCCC2)C1 (stereo not drawn) | 13.6
O=C(N[C@@H](Cc1ccccc1)C(=O)N1CCC2(CC1)NCCc1[nH]cnc12)c1cccc(Br)c1 | 17
CN(C)S(=O)(=O)c1cccc(-c2nn(-c3ccccc3)cc2/C=C(\C#N)c2nc3ccccc3[nH]2)c1 | 13.4
O=C([O-])CCC/C=C\C[C@@H]1[C@@H](/C=C/[C@@H](O)COc2cccc(Cl)c2)[C@H](O)C[C@@H]1O.[Na+] | 10.2
CC(C)CCNC(=O)C1CCN(c2nnc(-n3cccc3)s2)CC1 | 7.93
COC(=O)C1=C(c2ccc(-c3ccccc3)c(F)c2)C[C@@H]2CC[C@H]1N2C(=O)NCCO | 14
CCOC(=O)N1CCC(NC(=O)c2ccc3c(c2)N=C(C)c2c(C)ccc(C)c2S3)CC1 | 21
Cc1ccc(CNC(=O)CN2c3cccc4cccc(c34)S2(=O)=O)cc1 | 9.8
O=C(COc1ccc(Cl)cc1)NCCCNC(=O)c1ccncc1 | -5.27
Cc1noc(C)c1C(=O)N1CCC(Cc2ccccc2)CC1 | 8.93
O=C(C1=C[C@H](C2CCCCC2)C[C@H](OCc2ccc(CO)cc2)O1)N1CCN(Cc2ccccc2)CC1 | 5.06
CCN(CC)S(=O)(=O)c1ccc2c(c1)c(=O)c(C(=O)NCc1ccco1)cn2C | 12.4
Cc1nc2ccccc2c2oc(C(=O)NCCCN3CCCC3=O)cc12 | 5.57
O=C(O)c1ccc(NS(=O)(=O)c2ccc(Cl)c(C(=O)Nc3ccccc3[N+](=O)[O-])c2)cc1 | 12.1
Cc1ccc(S(=O)(=O)NCCC(=O)N2CCC(C)CC2)cc1 | 3.1
O=C1C(=O)N(CCCN2CCOCC2)C(c2ccc(Cl)cc2)/C1=C(/O)c1ccc(F)cc1 (stereo not drawn) | 16.8
CCOc1ccc(NC(=O)CCS(=O)(=O)c2ccc(Br)cc2)cc1 | 3.24
CC(C)c1ccccc1OCCNC(=O)c1cccnc1 | 10.5
COc1ccccc1NC(=O)CCCN1C(=O)C2CC=CCC2C1=O (stereo not drawn) | 13.5
O=C(O)c1cccc(S(=O)(=O)N2CCC(n3nnc4cc(C(F)(F)F)ccc43)CC2)c1 | 16.9
CCOC(=O)c1c(C)n(C(C)C)c2ccc(OC(=O)c3ccc(N4C(=O)CCC4=O)cc3)cc12 | 10.5
O=C(OCC#CCSc1nc2ccccc2o1)c1cc2ccccc2o1 | 15.7
COc1ccc(-c2noc(COc3ccc4c(c3)OCO4)n2)cc1 | 13.8
CC1CCN(CCCCOc2cccc(C(C)C)c2)CC1.O=C(O)C(=O)O | -10
COc1ccc2cc(C(=O)NCc3ccccc3CN3CCCC3)ccc2c1 | -22.2
COc1ccc(C)cc1-n1c(SCC(=O)Nc2cccc(C(=O)O)c2)nc2ccccc2c1=O | 16.5

SMILES | hERG current change (%, negative = inhibition) at 1uM [%]
CNC(=O)c1ccc(NC(=O)c2cccc(C(F)(F)F)c2)cc1 | 9.77
CCSc1nc(N)c(C#N)c(-c2ccco2)c1C#N | 4.1
COc1cccc(OC)c1C(=O)NNS(=O)(=O)c1ccc2ccccc2c1 | 13.2
COc1ccccc1-c1ccc(SCC(=O)NC2CCCC2)nn1 | -1.49
Cc1cc(C)n(CC(O)COc2c(C)cccc2C)n1 (stereo not drawn) | 4.69
COc1ccc(CCNC(=O)COc2ccc3c(c2)OCO3)cc1 | 8.08
Cc1cc2cc(C)c(NCCNC(=O)c3cccs3)nc2cc1C | 6.25
CC(C)CNC(=O)c1cc(S(=O)(=O)N2CCOCC2)ccc1N1CCCC1 | 2.58
CN1CCN(S(=O)(=O)c2cc([N+](=O)[O-])ccc2N/N=C/c2ccc(Cl)cc2)CC1 | -2.5
Cc1noc2ncnc(Sc3ccccc3Cl)c12 | 11.7
CCCn1c(N)c(C(=O)CN(C)CC(=O)Nc2ccc(F)cc2)c(=O)[nH]c1=O | -20
CCSc1nnc(Cn2c(=O)sc3ccccc32)n1-c1ccccc1C | 4.66
COCCCNC(=O)CCSc1ccc(C)cc1 | 4.88
CC1(NC(=O)Nc2cc([N+](=O)[O-])ccc2O)CCS(=O)(=O)C1 (stereo not drawn) | 11.5
COc1cc(C(=O)Nc2scc(-c3ccccc3)c2C(=O)O)cc(OC)c1OC | 14.8
CC1C(=O)N2CCCc3cc(NC(=O)C(=O)NCCc4c[nH]c5ccccc45)cc1c32 (stereo not drawn) | 6.51
COc1ccc(-c2cc(C(=O)Oc3ccc([N+](=O)[O-])cc3)c3ccccc3n2)cc1 | 8.08
CCc1ccccc1NCC(=O)Nc1ccc(Cl)c(C(F)(F)F)c1 | 16.6
CCc1ccc(N(CC(=O)N2CCOCC2)S(C)(=O)=O)cc1 | 13.7
CCOc1ccc(C(=O)NCC(=O)NCCCn2nc(C)cc2C)cc1OCC | 11.6
Cc1cc(-c2ccccc2)n2ncnc2n1 | 13
Cc1ccc(C)c(Cn2nnc3c(=O)[nH]c(C4CCCN(C(=O)C5CCC5)C4)nc32)c1 (stereo not drawn) | -3.21
CC(=O)O[C@H]1CSC[C@H]1NC(=O)c1ccccc1 | -0.55
C[C@H](NC(=O)c1nc[nH]c1C(=O)N[C@@H](Cc1ccccc1)C(=O)OCc1ccccc1)C(=O)OCc1ccccc1 | 3.98
Cc1cc2c(ccc3c2no[n+]3[O-])nn1 | -8.19
OC1/C(=C/c2ccc(Cl)cc2Cl)N2CCC1CC2 (stereo not drawn) | 3.13
Cc1ccccc1-n1ncc2c1CC(C)(C)CC2NC(=O)CSc1ccncc1 (stereo not drawn) | -2.76

Source: paper PMC4336329 (PLoS ONE, 2015)
